Source: the supplement of paper PMC12217912
The other results are listed elsewhere or left out. Sequences were assembled here from the parent chain. Values near 0.05 are background.

B1: TEV protease; numbered along this chain (parent)
chain: MGESLFKGPRDYNPISSSICHLTNESDGHTTSLYGIGFGPFIITNKHLFRRNNGTLVVQSLHGVFKVKDTTTLQQHLVDGRDMIIIRMPKDFPPFPQKLKFREPQREERICLVTTNFQTKSMSSMVSDTSCTFPSGDGIFWKHWIQTKDGQCGSPLVSTRDGFIVGIHSASNFTNTNNYFTSVPKNFMELLTNQEAQQWVSGWRLNADSVLWGGHKVFMVKPEEPFQPVKEATQL

Variants of: B1
Assay: raw area under fraction-flipped curve 0-4 h after induction (AUC4h, not background-subtracted), DNA-recorder readout of cleavage of the substrate (dimensionless); higher = more cleavage of the substrate by the protease variant
Settings: temperature: 34 °C; time window: 0-4 h after rhamnose induction
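Further: Bxb1 expression induced with 0.2% (w/v) L-rhamnose at OD600 near 0.5, cultures sampled hourly, flipped fraction per protease–substrate barcode pair counted by paired-end Illumina sequencing.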

| Variant | area with substrate ENLYFQK | area with substrate ENLYFQL | area with substrate ENLYFQM | area with substrate ENLYFQR | area with substrate ENLYFQS | area with substrate ENLYFQW | area with substrate ENLYFQG | area with substrate ENLYFQI | area with substrate ENLYFQP | area with substrate ENLYFQN |
| --- | --- | --- | --- | --- | --- | --- | --- | --- | --- | --- |
| N172F | 0.0671 | 0.075 | 0.0556 | 0.0697 | 0.0602 | 0.0718 |  |  |  |  |
| F101D |  |  |  | 0.0442 | 0.0598 | 0.0561 |  |  |  |  |
| N206A |  |  |  |  | 0.124 |  | 0.0971 |  |  |  |
| N206K |  |  | 0.0851 | 0.0595 | 0.1 |  |  | 0.0951 | 0.0558 |  |
| H215N |  | 0.0554 | 0.0373 | 0.0535 | 0.0624 | 0.0493 |  |  |  | 0.0382 |
| Y179W |  | 0.0404 | 0.0657 |  | 0.0617 |  | 0.074 |  |  | 0.055 |
| F140H |  | 0.053 |  | 0.038 | 0.0587 | 0.0575 |  |  |  |  |
| F92R |  |  |  |  | 0.0714 |  |  |  |  |  |
| E195V |  |  |  | 0.0656 | 0.092 |  |  |  | 0.0558 |  |
| Q197F |  | 0.0824 |  | 0.0578 | 0.11 | 0.066 | 0.115 | 0.0372 | 0.0714 | 0.0813 |
| Q197N | 0.069 | 0.0817 |  | 0.0667 | 0.0842 |  |  | 0.082 |  | 0.062 |
| F218Y |  |  | 0.0771 | 0.0444 | 0.107 | 0.0809 |  |  |  | 0.0849 |
| A196R |  |  |  |  | 0.0919 |  | 0.123 |  |  |  |
| G153W | 0.0031 |  | 0.0511 |  | 0.0527 | 0.0543 | 0.0688 |  |  | 0.0519 |
| G136S | 0.0567 |  |  |  | 0.101 | 0.0763 |  | 0.0599 |  | 0.0793 |
| I145P |  |  |  |  | 0.0674 | 0.0587 |  |  | 0.0608 |  |
| Q97K |  |  |  | 0.0593 |  |  |  |  |  |  |
| G8E | 0.0671 |  |  |  | 0.0976 |  |  |  |  |  |
| I84P | 0.0279 | 0.0271 | 0.0491 |  | 0.0497 |  |  |  | 0.0245 |  |

| Variant | area with substrate ENLYFQK | area with substrate ENLYFQL | area with substrate ENLYFQM | area with substrate ENLYFQR | area with substrate ENLYFQS | area with substrate ENLYFQW | area with substrate ENLYFQG | area with substrate ENLYFQI | area with substrate ENLYFQP | area with substrate ENLYFQN |
| --- | --- | --- | --- | --- | --- | --- | --- | --- | --- | --- |
| F180D | 0.0533 | 0.098 | 0.0537 | 0.0668 | 0.0512 | 0.0452 |  |  | 0.0685 | 0.0487 |
| Y34W |  |  |  |  | 0.104 |  |  |  |  |  |
| G35C |  |  |  |  | 0.0597 | 0.0516 |  |  |  | 0.0473 |
| G35N | 0.0427 |  |  |  | 0.042 |  |  |  |  | 0.0465 |
| K7E | 0.0628 |  |  |  | 0.0953 |  |  | 0.0508 | 0.0668 | 0.0825 |
| T114C |  |  | 0.0836 | 0.0679 | 0.095 | 0.0648 |  | 0.0713 |  | 0.0764 |
| T114D | 0.0734 |  | 0.0698 | 0.0443 | 0.0868 |  |  |  |  | 0.082 |
| N178W |  |  | 0.108 |  | 0.145 |  |  |  |  | 0.0786 |
| T129M | 0.0533 | 0.0512 | 0.056 | 0.0637 | 0.0801 |  |  |  |  | 0.0889 |
| T129Y | 0.0786 | 0.065 | 0.0894 |  | 0.095 | 0.0676 |  |  |  | 0.0687 |
| E223G | 0.0701 | 0.0653 | 0.112 |  | 0.105 |  |  | 0.0467 |  | 0.0806 |
| V220T |  |  | 0.0585 |  | 0.12 |  |  | 0.0652 |  |  |
| E103F |  | 0.0643 |  | 0.0699 | 0.0918 | 0.085 |  |  |  | 0.0795 |
| G213N |  | 0.0555 | 0.069 |  | 0.0702 | 0.0625 |  | 0.0932 | 0.0632 |  |
| L211S |  | 0.0501 | 0.143 |  | 0.138 |  |  | 0.0442 |  |  |
| E189P | 0.0551 | 0.0901 | 0.0924 | 0.049 | 0.0933 |  |  |  | 0.0545 | 0.0776 |
| C131Y |  | 0.0713 |  |  | 0.101 |  |  |  |  |  |
| A170M | 0.0644 | 0.0342 |  | 0.064 | 0.0626 |  | 0.0679 |  |  |  |

Same assay, conditions: temperature: 34 °C; time window: 0-4 h after rhamnose induction

| Variant | area with substrate ENLYFQQ | area with substrate ENLYFQT | area with substrate ENLYFQV | area with substrate ENLYFQY | area with substrate ENLYFQH |
| --- | --- | --- | --- | --- | --- |
| H215N | 0.0367 |  |  |  |  |
| Y179W |  | 0.0606 |  |  |  |
| F140H | 0.0643 |  |  |  |  |
| E195V | 0.0628 |  |  |  |  |
| Q197F |  | 0.0783 | 0.0496 | 0.0787 |  |
| F218Y |  | 0.119 | 0.0723 |  |  |
| G136S | 0.0431 |  |  |  | 0.0929 |
| Q97K |  | 0.0601 |  |  |  |
| G8E |  |  |  |  | 0.0714 |
| F180D |  | 0.0635 |  | 0.049 | 0.0568 |
| G35C |  | 0.0646 |  |  |  |
| K7E |  |  | 0.0564 |  |  |
| T114C |  | 0.0483 |  |  | 0.0846 |
| T114D |  |  | 0.0632 |  |  |
| N178W |  |  |  |  | 0.0871 |
| T129M | 0.0842 |  |  |  | 0.0718 |
| T129Y | 0.0703 | 0.0628 |  |  | 0.0961 |
| E223G |  | 0.0521 |  |  |  |
| V220T |  | 0.065 |  | 0.089 |  |
| E103F |  | 0.0617 |  |  |  |
| G213N |  | 0.0598 | 0.048 |  | 0.0583 |
| L211S |  |  | 0.0831 | 0.0595 | 0.119 |
| E189P |  | 0.0615 |  | 0.0479 |  |
| A170M | 0.0624 |  |  |  | 0.063 |
